Reference: PubChem BioAssay AID1477 (National Center for Advancing Translational Sciences (NCATS), 2009)
Out of some 230,000 compounds screened, fewer than 10 were called active. Inconclusive results, whose numbers are uncertain, are shown with a selection of clear calls. Calls come from the whole dose curve; as a rule, active = well fitted curve in the direction sought with a large enough effect; inconclusive = small, poorly fitted or top-dose-only effect, or effect the other way, or another doubt; inactive = no such curve, though single readings can be large or run the other way. Potencies of inconclusive entries are left out as doubtful fits.

Each compound was assayed against Runt-related transcription factor 1 (Homo sapiens) + Core-binding factor subunit beta (Homo sapiens) (UniProt Q01196+Q13951) (assay: qHTS Assay for Compounds Blocking the Interaction Between CBF-beta and RUNX1 for the Treatment of Acute Myeloid Leukemia). Conditions: AlphaScreen CBFb-His/RUNX1-biotin binding, biochemical; series mostly up to 59.8 µM.
Sequence of UniProt Q01196 (Q01196 whole entry, looked up): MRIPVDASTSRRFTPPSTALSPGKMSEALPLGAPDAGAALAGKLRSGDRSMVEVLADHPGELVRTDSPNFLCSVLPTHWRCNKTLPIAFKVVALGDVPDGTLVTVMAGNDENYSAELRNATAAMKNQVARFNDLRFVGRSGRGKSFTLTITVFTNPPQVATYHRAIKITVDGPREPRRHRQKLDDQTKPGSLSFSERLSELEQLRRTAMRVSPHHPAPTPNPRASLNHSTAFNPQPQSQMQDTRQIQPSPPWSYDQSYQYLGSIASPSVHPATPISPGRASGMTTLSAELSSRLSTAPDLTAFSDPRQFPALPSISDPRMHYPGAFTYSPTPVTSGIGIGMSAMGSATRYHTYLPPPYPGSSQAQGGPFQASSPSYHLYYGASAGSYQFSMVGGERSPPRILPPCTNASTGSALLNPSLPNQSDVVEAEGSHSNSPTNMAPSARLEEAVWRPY
Sequence of UniProt Q01196 (Q13951 whole entry, looked up): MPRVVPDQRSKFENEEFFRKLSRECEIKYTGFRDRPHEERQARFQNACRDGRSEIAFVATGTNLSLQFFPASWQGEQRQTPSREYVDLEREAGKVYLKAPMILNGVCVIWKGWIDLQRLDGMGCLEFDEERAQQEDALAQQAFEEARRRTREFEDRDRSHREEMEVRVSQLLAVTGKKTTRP
Summary of the method: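 Read-out: AlphaScreen. Format: His-CBF-beta with biotinylated RUNX1 (30 nM each) preincubated 20 min, compound 15 min, Ni-chelate plus streptavidin beads 90 min; room temperature throughout.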

Compound | Potency
O=C(Nc1cccc(C(F)(F)F)c1)c1ccc2nc(-c3ccco3)c(-c3ccco3)nc2c1 | inconclusive [inhibitor, single point]
Oc1ccccc1-c1nc2c3ccccc3c3ccccc3c2[nH]1 | inactive
CCOC(=O)Cc1cc(=O)n2[nH]c(C)c(-c3ccc(Cl)cc3)c2n1 | inactive
C=CCOC(=O)C1=C(C)Nc2nnnn2C1c1cccs1 (configuration not stated) | inactive
COc1ccc(NC(=O)c2ccc(CN3CCN(c4ccccc4)CC3)cc2)cc1 | inactive
COc1ccc(C(=O)NNC(=O)C(C)NC(=O)c2ccccc2NC(=O)c2ccco2)cc1 (configuration not stated) | inactive
CC(C)(C)NC(=S)Nc1ccc(Nc2ccccc2)cc1 | inconclusive [inhibitor, single point]
Cc1ccc(NC(=O)CN(C)C(=O)c2ccc(Cl)c([N+](=O)[O-])c2)cc1 | inconclusive [activator, single point]
COc1ccc(OC)c(C2CC(=O)N3CN(c4ccccc4)CSC3=C2C#N)c1 (configuration not stated) | inactive
Oc1ccc(/C=N/NC(=S)NCCN2CCOCC2)c(O)c1 | inconclusive [inhibitor, partial curve]
O=C(CCSc1ccc(Cl)cc1)N1CCCCCC1 | inactive
CCN(CC)S(=O)(=O)c1cccc(-c2nnc(SCC(=O)NC)n2N)c1 | inconclusive [activator, single point]
COc1ccc(N2Cc3cccc(C(=O)N4CCN(C(=O)c5ccco5)CC4)c3C2=O)cc1 | inconclusive [activator, single point]
CC(C)Cn1nc(NC(=O)C(C)(C)C)c2cc3ccccc3nc21 | inconclusive [activator, partial curve]
CC(C)NCC(O)c1cc(O)cc(O)c1 (configuration not stated) | inconclusive [inhibitor, partial curve]
CC(=O)Oc1ccccc1N(C(C)=O)S(=O)(=O)c1ccc2ccccc2c1 | inactive
O=C1NC(=O)N(Cc2ccco2)C(=O)/C1=C\c1cccn1CCOc1ccc(Cl)cc1 | inconclusive [inhibitor, single point]
Cc1cc(C(=O)NNC(=S)Nc2ccccc2)nn1C | inconclusive [inhibitor, partial curve]
CN(C(=O)COc1ccccc1)c1nnc(C23CC4CC(CC(C4)C2)C3)s1 | inconclusive [activator, single point]
CCc1cc(-c2nc(N)ncc2-c2csc(C)n2)c(O)cc1OC | inactive
COc1ccc(CCNC(=O)c2cc(-c3ccccc3O)n[nH]2)cc1OC | inactive
O=C(CN1CCOCCOCCN(CC(=O)Nc2ccccc2)CCOCC1)Nc1ccccc1 | inactive
COc1ccc2nc(N=Nc3ccc(O)c4ccccc34)sc2c1 | inconclusive [inhibitor, full curve, poor fit]
O=C(NNC(=S)NC(=O)c1ccccc1[N+](=O)[O-])c1ccccc1O | inconclusive [inhibitor, full curve]

Compound | Potency
COc1ccccc1-n1c(SCC(N)=O)nnc1-c1ccc(S(=O)(=O)N2CCCCC2)cc1 | inactive
C=CCn1c(N)c(C(=O)NCC2CCCO2)c2nc3ccccc3nc21 (configuration not stated) | inconclusive [activator, single point]
O=C1CCCC1C(O)c1ccc2ccccc2c1 (configuration not stated) | inactive
CN(Cc1cnccn1)Cc1nc(Cc2ccccc2F)no1 | inconclusive [activator, single point]
CCCCC(=O)NC(=S)Nc1cccc(NC(=O)CC)c1 | inactive
CO/N=C(\C(=O)N[C@@H]1C(=O)N2C(C(=O)O)=C(CSc3nc(=O)c(O)nn3C)CSC12)c1csc(N)n1 (some centres not stated) | inconclusive [inhibitor, single point]
Cc1ccc(C)c(N=Nc2ccc(O)c3ncccc23)c1 | inconclusive [inhibitor, partial curve]
COc1ccc(OCc2csc(N)n2)cc1 | inactive
Cc1cc(C)n(-c2nc(-c3ccc(Cl)cc3)cs2)n1 | inactive
O=C(COC(=O)c1ccccc1)NCc1ccco1 | inconclusive [inhibitor, single point]
COc1ccccc1N1CCN(CCn2c(=O)[nH]c3c([nH]c4ccccc43)c2=O)CC1 | inactive
O=C(NCc1ccccc1C(F)(F)F)C1CC(c2ccccc2C(F)(F)F)=NO1 (configuration not stated) | inconclusive [activator, partial curve]
CC1=NN(c2nc(-c3ccc(C)cc3)cs2)C(=O)C1N=Nc1ccc(C(N)=O)cc1 (configuration not stated) | inconclusive [inhibitor, single point]
CCN1CCCC1CNC(=O)c1cc2c(-c3ccc(Cl)cc3)nn(C)c2s1 (configuration not stated) | inactive
COc1ccc(Br)cc1CN(C)C(C)C(=O)Nc1cccc(C(C)=O)c1 (configuration not stated) | inconclusive [activator, single point]
Cc1ccccc1-c1nnc(SCc2ccccc2)o1 | inconclusive [activator, single point]
CC(=O)/C(=N\Nc1ccccc1)Oc1ccc([N+](=O)[O-])cc1 | inconclusive [inhibitor, single point]
C/C(=N\Nc1ccc2nncn2n1)c1ccccn1 | inconclusive [inhibitor, full curve]
COc1ccc(Cc2nnc(NS(=O)(=O)c3ccc(Cl)cc3)s2)cc1OC | inactive
CCC(=C(c1ccc(OC)cc1)c1ccc(OC)cc1)c1cn(CC(O)CN(CCO)CCO)c2ccccc12 (configuration not stated) | inconclusive [inhibitor, single point]
O=C(N/N=C/c1cccc([N+](=O)[O-])c1O)c1cccs1 | inconclusive [inhibitor, single point]
Cc1cc(-c2csc(NC(=O)c3ccc(=O)[nH]c3)n2)c(C)n1Cc1ccco1 | inconclusive [inhibitor, full curve]
O=S(=O)(Nc1nc2ccccc2nc1Nc1ccc2c(c1)OCCO2)c1cccs1 | inconclusive [inhibitor, single point]
